# From PubChem BioAssay (NCATS)
# The shares of active, inactive and inconclusive entries below differ from those in the screen. For part of these data: Potencies of inconclusive entries are left out as doubtful fits. The source made the active and inactive calls. Unless noted, calls follow the shape of the dose curve; as a rule, active = well fitted curve in the direction sought with a large enough effect; inconclusive = small, poorly fitted or top-dose-only effect, or another doubt; inactive = no such curve, though single readings can be large; an effect the other way counts as inactive or inconclusive. Where a SMILES comes first, the peptide text is derived from it. [ ]: non-standard residue; d: D form. ξ: configuration not given here. ξPhe(βξ-Me) = CC(c1ccccc1)C(N)C(=O)O; GABA = NCCCC(=O)O
# What was measured:
# [1] = target: Cytochrome P450 2C9 (Homo sapiens) (UniProt P11712); experiment: Cytochrome P450 family 2 subfamily C member 9 (CYP2C9) small molecule antagonists: luciferase biochemical (cell-free) qHTS assay (AID 1645842; active = well fitted curve in the direction sought with a large enough effect in the repeat runs; inconclusive = weak or mixed curves; inactive = no such curve, though single readings can be large; an effect the other way counts as inactive or inconclusive; also: potency is read from the fitted curve at half-maximal effect; nearly all actives have a fitted effect of over 55% in size)
# Procedure, shortened: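 P450-Glo CYP2C9 system: proluciferin substrate with enzyme in mix containing 0.4% BSA, 10 min at room temperature, then NADPH regeneration solution added and incubated 1 h at 37C. Detection reagent stopped reaction; luminescence read after 20 min as RLU.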
# [2] = system: Zika virus NS2B-NS3 protease (linked construct); experiment: Primary screen NINDS Rhodamine qHTS for Zika virus inhibitors (AID 1347160); conditions: activity change, negative = inhibition: at 57.1 µM (top of the series) unless noted; also: potency is read from the fitted curve at half-maximal effect; nearly all actives have a fitted effect of over 55% in size
# Procedure, shortened: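 Aprotinin served as in-plate control. Conditions: 25 nM linked NS2B-NS3, pH 8.0 Tris buffer, titrated compounds, 15 min preincubation and 15 min reaction with 1.5 microM Rhod110 substrate at room temperature.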
# [3] = Primary redox qHTS assay for identification of artifact compounds. (AID 1845223); conditions: Amplex Red/HRP redox cycling with DTT, fluorescence; redox activity (% of DA3003): at 53.8 µM (top of the series); also: potency is read from the fitted curve at half-maximal effect;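 as to redox activity (% of DA3003): 0% = DMSO and 100% = reference compound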
# Procedure, shortened: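 Redox-cycling detection via DTT (250 uM final) oxidation coupled to Amplex Red (25 uM)/HRP (250 mU/mL) in HBSS. 15 min preincubation plus 30 min after DTT, room temperature. Ex/Em 525/598 nm; 4-parameter Hill fit against DMSO and 10 uM DA3003.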
# [4] = qHTS of pediatric cancer cell lines to identify multiple opportunities for drug repurposing: Primary screen for Saos-2 cells (AID 1347097); also: potency is read from the fitted curve at half-maximal effect; nearly all actives have a fitted effect of over 40% in size
# Procedure, shortened: (§1)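 500-1,000 cells/well; 5 h pre-incubation 37 °C/5% CO2; compound pinned; 48 h; CellTiter-Glo, 15 min RT; luminescence. MIPE 11-pt from 0.78 nM, NPC 8-pt from 0.59 nM final. Bortezomib 2.3 µM final as positive control.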
# [5] = qHTS of pediatric cancer cell lines to identify multiple opportunities for drug repurposing: Primary screen for Rh41 cells (AID 1347108); also: nearly all actives have a fitted effect of over 70% in size; also: potency is read from the fitted curve at half-maximal effect;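 as to activity change, negative = cytotoxic: luminescence drop marks cytotoxic hits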
# Procedure, shortened: as §1
# [6] = system: CP247; experiment: qHTS profiling for inhibitors of Plasmodium falciparum proliferation (AID 504749); also: nearly all actives have a fitted effect of over 60% in size; also: potency is read from the fitted curve at half-maximal effect;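 as to activity, negative = inhibition: 0% = DMSO vehicle and full inhibition = artemisinin control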; conditions: P. falciparum in erythrocytes, SYBR Green DNA, 72 h; series mostly up to 28.7 µM
# Procedure, shortened: (§2)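 SYBR Green fluorescence (ex 485 nm, em 535 nm) reports parasite DNA after 72 h compound exposure of infected red cells at 0.3% parasitemia, 2.5% hematocrit; signal normalized to 0.29 uM artemisinin and vehicle wells.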
# [7] = system: DIV14; experiment: as above; conditions: P. falciparum in erythrocytes, SYBR Green DNA, 72 h; series mostly up to 28.7 µM
# Procedure, shortened: as §2
# [8] = qHTS of pediatric cancer cell lines to identify multiple opportunities for drug repurposing: Primary screen for SK-N-MC cells (AID 1347093); conditions: SK-N-MC viability, CellTiter-Glo luminescence, 48 h; activity change, negative = cytotoxic: at 46 µM (top of the series); also: potency is read from the fitted curve at half-maximal effect;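 as to activity change, negative = cytotoxic: plate controls were DMSO neutral control for no effect and bortezomib for full effect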
# Procedure, shortened: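 Metabolically active cells were quantified by ATP-dependent luminescence (CellTiter-Glo, 15 min at room temperature) following 48 h treatment. Cells had been plated at 500-1,000 per well and settled for 5 h beforehand.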
# [9] = qHTS of pediatric cancer cell lines to identify multiple opportunities for drug repurposing: Primary screen for BT-37 cells (AID 1347094);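 also: plate controls were DMSO for no effect and bortezomib for full effect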
# Procedure, shortened: as §1
# [10] = system: CP215; experiment: qHTS profiling for inhibitors of Plasmodium falciparum proliferation (AID 504749); also: nearly all actives have a fitted effect of over 60% in size; also: potency is read from the fitted curve at half-maximal effect;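 as to activity, negative = inhibition: 0% = DMSO vehicle and full inhibition = artemisinin control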; conditions: P. falciparum in erythrocytes, SYBR Green DNA, 72 h; series mostly up to 28.7 µM
# Procedure, shortened: as §2
# [11] = system: CP335; experiment: as above; conditions: P. falciparum in erythrocytes, SYBR Green DNA, 72 h; series mostly up to 28.7 µM
# Procedure, shortened: as §2
# [12] = system: DIV17; experiment: as above; conditions: P. falciparum in erythrocytes, SYBR Green DNA, 72 h; activity, negative = inhibition: at 28.7 µM (top of the series) unless noted
# Procedure, shortened: as §2
# [13] = system: DIV30; experiment: as above; conditions: P. falciparum in erythrocytes, SYBR Green DNA, 72 h; series mostly up to 28.7 µM
# Procedure, shortened: as §2
# [14] = system: GB4; experiment: as above; conditions: P. falciparum in erythrocytes, SYBR Green DNA, 72 h; series mostly up to 28.7 µM
# Procedure, shortened: as §2
# [15] = system: PC26; experiment: as above; conditions: P. falciparum in erythrocytes, SYBR Green DNA, 72 h; series mostly up to 28.7 µM
# Procedure, shortened: as §2
# Tags tell the direction and shape of the fitted curve.
# UniProt P11712, sequence (P11712 whole entry, looked up): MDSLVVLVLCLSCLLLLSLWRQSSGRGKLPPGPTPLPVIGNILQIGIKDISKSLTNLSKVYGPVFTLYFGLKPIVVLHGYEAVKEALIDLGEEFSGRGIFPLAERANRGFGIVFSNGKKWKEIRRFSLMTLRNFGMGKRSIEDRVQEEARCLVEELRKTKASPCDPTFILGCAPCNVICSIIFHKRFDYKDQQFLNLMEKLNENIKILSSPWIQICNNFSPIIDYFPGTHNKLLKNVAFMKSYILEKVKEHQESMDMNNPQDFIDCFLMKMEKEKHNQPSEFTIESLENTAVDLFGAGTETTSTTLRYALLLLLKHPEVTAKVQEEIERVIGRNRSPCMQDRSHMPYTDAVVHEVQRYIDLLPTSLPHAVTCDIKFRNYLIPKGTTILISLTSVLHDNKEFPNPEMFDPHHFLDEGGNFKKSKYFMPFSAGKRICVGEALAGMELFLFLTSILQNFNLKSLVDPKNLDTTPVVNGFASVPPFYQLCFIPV
smiles,measurement,setting,value
CC(C)(C)c1ccc(C(=O)Nc2cn3cc(-n4ccnc4)ccc3n2)cc1,Potency,[1],active: 7.56 µM
COC1C(=O)CCC2(CO2)C1(O)C1(C)OC1CC=C(C)C (stereo not given),Potency,[2],"inconclusive [inhibitor, partial curve, poor fit]"
same,Potency,[3],"inconclusive [activator, single point]"
O=C(O)[C@@H]1CSCN1,Potency,[4],"inconclusive [cytotoxic, single point]"
same,Potency,[5],"inconclusive [cytotoxic, partial curve, poor fit]"
same,Potency,[6],"inconclusive [inhibitor, full curve, poor fit]"
same,Potency,[7],inactive
C/C=C(/COC(=O)/C(C)=C/C)C(=O)OC(CC)c1ccc(OC)c(OC)c1 (stereo not given),Potency,[3],inactive
COC(=O)c1ccc(NC(C)=O)cc1OC,Potency,[8],inactive
same,Potency,[4],"inconclusive [cytotoxic, partial curve, poor fit]"
N#Cc1cc(C2=Nc3ccc(Br)cc3NC(=O)C2)ccn1,Potency,[1],"inconclusive [inhibitor, full curve]"
CCN(Cc1ccccc1)C(=O)Cn1c(=O)n(C)c2cnc(-c3ccccc3)nc21,Potency,[3],"inconclusive [activator, full curve, poor fit]"
CC(C)Oc1ccc(-c2cnc3c(-c4ccnc5ccccc45)cnn3c2)cc1,Potency,[1],"inconclusive [inhibitor, partial curve]"
CC(C)CC1NC(=O)C(C(C)c2ccccc2)NC(=O)C(C(C)C)NC(=O)C(C)NC(=O)CCCNC(=O)C(Cc2c[nH]c3ccccc23)NC(=O)C(C)NC1=O (stereo not drawn) (cyclo([GABA]AV[ξPhe(βξ-Me)]LAW); configuration not given here),Potency,[3],"inconclusive [activator, partial curve, poor fit]"
CC(=O)NC(Cc1c[nH]c2ccccc(=O)c12)C(=O)O (stereo not given),Potency,[3],"inconclusive [activator, single point]"
Cn1cc[nH]c1=S,Potency,[9],inactive
CC(=O)O[C@@H]1C[C@]2(C)[C@@]3(CCC4[C@@]5(C)CC[C@H](O[C@@H]6O[C@H](C(=O)O)[C@@H](O)[C@H](OC7OC(CO)C(O)C(O)[C@H]7O[C@@H]7O[C@@H](C)[C@H](O)[C@@H](O)[C@H]7O[C@@H]7OC[C@](O)(CO)[C@H]7O)[C@H]6OC6OC(CO)C(O)C(O)C6O)C(C)(C)C5CC[C@]42C)OC[C@@]12CCC(C)(C)CC23 (stereo not given in full),redox activity (% of DA3003),[3],inactive: 8.79% [at 11.5 µM]
CC1=C(C(=O)OC2CCCCC2)C(c2ccc([N+](=O)[O-])cc2)C2=C(CC(C)(C)CC2=O)N1 (stereo not given),Potency,[2],active: 31.6 µM
same,Potency,[3],active: 2.12 µM
COc1cc(N2CCC(O)CC2)ccc1Nc1nc(Nc2ccccc2S(=O)(=O)C(C)C)c2[nH]cnc2n1,Potency,[3],"inconclusive [activator, partial curve, poor fit]"
CC(=O)[C@@]1(O)CC[C@H]2[C@@H]3CCC4=CC(=O)CC[C@]4(C)[C@H]3CC[C@@]21C,Potency,[10],inactive
same,Potency,[6],inactive
O=C(NC1CCN(CCc2c[nH]c3ccccc23)CC1)c1ccccc1,Potency,[11],"inconclusive [inhibitor, partial curve, poor fit]"
same,Potency,[7],"inconclusive [inhibitor, partial curve]"
same,Potency,[12],"inconclusive [inhibitor, single point]"
same,Potency,[13],"inconclusive [inhibitor, partial curve]"
same,Potency,[14],"inconclusive [inhibitor, partial curve, poor fit]"
same,Potency,[15],"inconclusive [inhibitor, single point]"
CC(=O)[C@H]1CC[C@H]2[C@@H]3C=CC4=CC(=O)CC[C@@]4(C)[C@@H]3CC[C@]12C,Potency,[8],"inconclusive [cytotoxic, single point]"
same,Potency,[5],inactive
